± gives the standard deviation of the averaged measurements. Restriction of a single-cycle SIVsab GFP reporter by TRIM5α v1-loop variants in CRFK cells. Human variants: read share among cells still uninfected after two challenges over input, higher = gained restriction. Rhesus variants: share among infected cells over input, higher = lost restriction. Reporter dose not given per row. No active / inactive call per row; the paper calls a change when both replicates lie above its controls (mean + 2 SD of stop or wild-type variants, or the top frameshift score). Residues outside the varied loop are taken from Swiss-Prot. The paper reads the human single-substitution scores as noise; they and the rhesus combinations repeat poorly (rank correlation 0.3 to 0.4), indel scores repeat only for the top variants, rhesus substitutions well (0.9).

The values that follow come from the supplement of paper PMC12230231.

The data set concerns SIVsab (simian immunodeficiency virus of sabaeus monkeys), single-cycle GFP reporter, in CRFK cells. Kind of data set: enrichment among uninfected cells over input (fold); higher = stronger restriction. Conditions: library: human / rhesus combinations. The procedure:
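Pools of CRFK cells expressing variants of the TRIM5α v1 loop were challenged with the single-cycle reporter, sorted by GFP and sequenced; mean of two replicates.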
With “MASGILVNVKEEVTCPICLELLTQPLSLDCGHSFCQACLTANHKKSMLDKGESSCPVCRISYQPENIRPNRHVANIVEKLREVKLSPEGQKVDHCARHGEKLLLFCQEDGKVICWLCERSQEHRGHHTFLTEEVAREYQVKLQAALEMLRQKQQEAEELEADIREEKASWKTQIQYDKTNVLADFEQLRDILDWEESNELQNLEKEEEDILKSLTNSETEMVQQTQSLRELISDLEHRLQGSVMELLQGVDGVIKRTENVTLKKPETFPKNQRRVFRAPDLKGMLEVFRELTDVRRYWVDVTVAPNNISCAVISEDKRQVSSPKPQIIYQAPGTLFTFQTFVNFNYCTGILGSQSITSGKHYWEVDVSKKTAWILGVCAGFQPDAMCNIEKNENYQPKYGYWVIGLEEGVKCSAFQDSSFHTPSVPFIVPLSVIICPDRVGVFLDYEACTVSFFNITNHGFLIYKFSHCSFSQPVFPYLNPRKCGVPMTLCSPSS [human TRIM5α, 330-340 = QAPGTLFTFQTFV]”, the enrichment was 0.182 ± 0.03.

Turning to “MASGILVNVKEEVTCPICLELLTQPLSLDCGHSFCQACLTANHKKSMLDKGESSCPVCRISYQPENIRPNRHVANIVEKLREVKLSPEGQKVDHCARHGEKLLLFCQEDGKVICWLCERSQEHRGHHTFLTEEVAREYQVKLQAALEMLRQKQQEAEELEADIREEKASWKTQIQYDKTNVLADFEQLRDILDWEESNELQNLEKEEEDILKSLTNSETEMVQQTQSLRELISDLEHRLQGSVMELLQGVDGVIKRTENVTLKKPETFPKNQRRVFRAPDLKGMLEVFRELTDVRRYWVDVTVAPNNISCAVISEDKRQVSSPKPQIIYQAPGTLFTFQTLTNFNYCTGILGSQSITSGKHYWEVDVSKKTAWILGVCAGFQPDAMCNIEKNENYQPKYGYWVIGLEEGVKCSAFQDSSFHTPSVPFIVPLSVIICPDRVGVFLDYEACTVSFFNITNHGFLIYKFSHCSFSQPVFPYLNPRKCGVPMTLCSPSS [human TRIM5α, 330-340 = QAPGTLFTFQTLT]”, the enrichment worked out at 0.0934 ± 0.06.

For “MASGILVNVKEEVTCPICLELLTQPLSLDCGHSFCQACLTANHKKSMLDKGESSCPVCRISYQPENIRPNRHVANIVEKLREVKLSPEGQKVDHCARHGEKLLLFCQEDGKVICWLCERSQEHRGHHTFLTEEVAREYQVKLQAALEMLRQKQQEAEELEADIREEKASWKTQIQYDKTNVLADFEQLRDILDWEESNELQNLEKEEEDILKSLTNSETEMVQQTQSLRELISDLEHRLQGSVMELLQGVDGVIKRTENVTLKKPETFPKNQRRVFRAPDLKGMLEVFRELTDVRRYWVDVTVAPNNISCAVISEDKRQVSSPKPQIIYQAPGTLFTFQTLVNFNYCTGILGSQSITSGKHYWEVDVSKKTAWILGVCAGFQPDAMCNIEKNENYQPKYGYWVIGLEEGVKCSAFQDSSFHTPSVPFIVPLSVIICPDRVGVFLDYEACTVSFFNITNHGFLIYKFSHCSFSQPVFPYLNPRKCGVPMTLCSPSS [human TRIM5α, 330-340 = QAPGTLFTFQTLV]”, the enrichment amounted to 0.114 ± 0.12.

Consider “MASGILVNVKEEVTCPICLELLTQPLSLDCGHSFCQACLTANHKKSMLDKGESSCPVCRISYQPENIRPNRHVANIVEKLREVKLSPEGQKVDHCARHGEKLLLFCQEDGKVICWLCERSQEHRGHHTFLTEEVAREYQVKLQAALEMLRQKQQEAEELEADIREEKASWKTQIQYDKTNVLADFEQLRDILDWEESNELQNLEKEEEDILKSLTNSETEMVQQTQSLRELISDLEHRLQGSVMELLQGVDGVIKRTENVTLKKPETFPKNQRRVFRAPDLKGMLEVFRELTDVRRYWVDVTVAPNNISCAVISEDKRQVSSPKPQIIYQAPGTLYQSFVNFNYCTGILGSQSITSGKHYWEVDVSKKTAWILGVCAGFQPDAMCNIEKNENYQPKYGYWVIGLEEGVKCSAFQDSSFHTPSVPFIVPLSVIICPDRVGVFLDYEACTVSFFNITNHGFLIYKFSHCSFSQPVFPYLNPRKCGVPMTLCSPSS [human TRIM5α, 330-340 = QAPGTLYQSFV]”, for which the enrichment was determined as 0.00408 ± 0.0018.
